{
  "source": "PubChem BioAssay AID463173",
  "about": "(ICCB-Longwood Screening Facility, Harvard Medical School, 2010)",
  "note": "About 1,700 (3.3%) of roughly 52,000 compounds were called active. No stated cut-off is given here; in the data, active means survival mostly below about 52% (no sharp cut-off); inactive means mostly above about 56%. This is one part of the list.",
  "data": [
    {"tested_on": "Wild type", "assay": "growth inhibition of S. aureus wild type versus tarO mutant, primary screen, teichoic acid synthesis inhibitors, RN4220, OD600 (AID 463173)", "settings": "S. aureus RN4220 wild type/DeltatarO growth, OD600, 18 h, hits give low values, screened at 18.75 µg/mL (by protocol)", "values": [
      {"smiles": "CCCc1nnc(SCC(=O)N2CCCc3ccccc32)n1CC", "survival": "inactive: 108%"},
      {"smiles": "Cc1ccc(NC(=O)N2CCC3(CC2)Oc2ccccc2C(=O)N3Cc2ccc(F)cc2)cc1", "survival": "inactive: 78%"},
      {"smiles": "CCNC(=O)c1ccc2c(c1)sc1nc(-c3cccc(OC)c3)cn12", "survival": "inactive: 92%"},
      {"smiles": "CN(C)c1ccc(-c2nnc(-c3ccc(Cl)cc3)o2)cc1", "survival": "inactive: 106%"},
      {"smiles": "CC(Oc1ccccc1)C(=O)Nc1cccc(-c2cn3cccnc3n2)c1", "note": "(stereo not given)", "survival": "inactive: 84%"},
      {"smiles": "Cc1c2cnn(CC(=O)NC(C)C)c(=O)c2c(C)n1Cc1cccc(Cl)c1", "survival": "inactive: 81%"},
      {"smiles": "O=C(CN1CCC(n2cnc3cc(F)ccc32)CC1)Nc1ccccc1Br", "survival": "inactive: 108%"},
      {"smiles": "COc1ccc(/C=C/c2nc(C#N)c(NCc3ccc(C)cc3)o2)cc1OC", "survival": "inactive: 100%"},
      {"smiles": "COc1ccc(Cn2c(SC)nc3ccccc32)cc1", "survival": "inactive: 108%"},
      {"smiles": "CCOc1nc(-c2ccccc2)ccc1-c1noc(-c2ccc(C)cc2)n1", "survival": "inactive: 109%"},
      {"smiles": "c1cncc(-c2nnc(SCC3CCCCC3)o2)c1", "survival": "inactive: 103%"},
      {"smiles": "CCOc1ccc(NC(=O)CC2C(=O)N(c3ccccc3)C(=O)N2CCc2sccc2C)cc1", "note": "(stereo not given)", "survival": "inactive: 80%"},
      {"smiles": "O=C(Cn1cc(SCc2cccc(Cl)c2)c2ccccc21)N1CCCCC1", "survival": "inactive: 81%"},
      {"smiles": "Cc1c(C(=O)OC2CCC(C)CC2)[nH]c2c1C(=O)CC(c1ccc(N(C)C)cc1)C2", "note": "(stereo not given)", "survival": "inactive: 80%"},
      {"smiles": "COc1ccc(S(=O)(=O)c2c(C(=O)c3ccc(C)c(C)c3)cnc3ccc(C)cc23)cc1", "survival": "inactive: 84%"},
      {"smiles": "Fc1ccc(-c2cc(-c3nc(-c4ccc(Cl)cc4)no3)[nH]n2)cc1", "survival": "inactive: 72%"},
      {"smiles": "O=C1C2C3c4ccccc4C(c4ccccc43)C2C(=O)N1Cc1ccco1", "note": "(stereo not given)", "survival": "inactive: 124%"},
      {"smiles": "NC(=O)C1CCN(C(=O)c2cc(-c3ccccc3)on2)CC1", "survival": "inactive: 121%"},
      {"smiles": "CC(=O)c1ccc(NC(=O)c2nc(-c3ccc(Cl)cc3)n3c2CCCCC3)cc1", "survival": "inactive: 70%"},
      {"smiles": "CC(C)(C)OC(=O)N1CCC(c2c(C(=O)N3CCN(C(=O)c4ccco4)CC3)cnn2-c2cccc(Cl)c2)CC1", "survival": "inactive: 95%"},
      {"smiles": "COC(=O)c1cc(NC(=O)CC2C(=O)OCCN2Cc2ccccc2)cc(C(=O)OC)c1", "note": "(stereo not given)", "survival": "inactive: 147%"},
      {"smiles": "COc1cccc(OCC(=O)NC2CC(=O)N(c3cccc(OC)c3)C2)c1", "note": "(stereo not given)", "survival": "inactive: 124%"},
      {"smiles": "Cc1ccccc1CSc1nc2c(sc3ccccc32)c(=O)n1CCCC(=O)NCCCOC(C)C", "survival": "inactive: 87%"},
      {"smiles": "COc1ccc(NC(=O)Cn2c(=O)c3ccccc3n3nncc23)cc1Cl", "survival": "inactive: 87%"},
      {"smiles": "CN(c1nnc(NC(=O)Nc2ccccc2C(F)(F)F)s1)C1CCCCC1", "survival": "inactive: 117%"}
    ]}
  ]
}
